Measured values reported in the RNAGym collection of RNA variant scans (doi:10.7554/elife.90254).
Read counts are not given, so values of variants with three or more changes are uncertain.

B1: LINE1-full (parent)
chain: UACGUAGGUGGUUUUCCCCUGAUAGUGCUAAGGGGGCCUGGAAGUUUGGACUGGGCAGAGCUCAACACAGCGUGGCAAAGUGGCUGUGGCUAGACUGCCUCUCUGGAUUCCUCGUCACUCAGCAGGGCAUCUCUGAGAGAAAUGCC

Variants of: B1
Experiment: self-cleavage, relative activity (ratio to wild type); higher = more cleavage; in vitro, sequencing; the parent is a self-cleaving ribozyme

With U13C A43G A79G as the variant, how does the self-cleavage read?
The self-cleavage was 0.9.

For U13A U100C U108A A129G, which self-cleavage is on record?
The self-cleavage was 1.84.

With U13C A65G A77G as the variant, how does the self-cleavage read?
The self-cleavage was 0.74.

For U13C U20C G36U A129G U130A, which self-cleavage is on record?
Its self-cleavage is 0.9.

Which self-cleavage does the source give for U13C G55C U85A here?
The self-cleavage was 0.08.

Which self-cleavage does the source give for U13C U23C A78G here?
The self-cleavage was 1.17.

With U13C G33A A57U U100C A136G as the variant, how does the self-cleavage read?
The self-cleavage was 0.5.

Which self-cleavage does the source give for U13A U26A A69G U115C here?
The self-cleavage was 0.

Which self-cleavage does the source give for U13C U52C U132A here?
Its self-cleavage is 0.76.

With U13C G35A U39A G89U A107G U115A A141G as the variant, how does the self-cleavage read?
Its self-cleavage is 0.04.

For U13C U45G U102C U108C, which self-cleavage is on record?
The self-cleavage was 1.31.

With U13C U47C U91C U96C G97C as the variant, how does the self-cleavage read?
The self-cleavage was 0.

Which self-cleavage does the source give for U13A U81C A117U here?
The self-cleavage was 0.99.

With U13C A24U U52A as the variant, how does the self-cleavage read?
Its self-cleavage is 0.97.

Which self-cleavage does the source give for U13C U62A U81A here?
Its self-cleavage is 0.06.

Which self-cleavage does the source give for U13C U14C U26C U52C G75A here?
Its self-cleavage is 0.7.

For U13C A67G G88U A117G, which self-cleavage is on record?
Its self-cleavage is 0.

For U13C A79G U85A A138G, which self-cleavage is on record?
Its self-cleavage is 0.

Which self-cleavage does the source give for U13C U52A A65U here?
Its self-cleavage is 0.35.

For U13C A59G U85C U108C, which self-cleavage is on record?
Its self-cleavage is 0.

Which self-cleavage does the source give for U13C U15C U112A here?
The self-cleavage was 1.74.

For U13C U52A U134C A141C, which self-cleavage is on record?
Its self-cleavage is 1.44.

Which self-cleavage does the source give for U13C U20C U47A here?
The self-cleavage was 0.82.

With U13C A50U U52A as the variant, how does the self-cleavage read?
The self-cleavage was 0.89.

For U13A U39C A129G, which self-cleavage is on record?
The self-cleavage was 1.11.

With U13C G36C U52C A79G U87C U115A U132C G139A as the variant, how does the self-cleavage read?
The self-cleavage was 2.04.

For U13C A22U A124G, which self-cleavage is on record?
The self-cleavage was 0.59.

For U13C U26C U73A U87A A136G, which self-cleavage is on record?
Its self-cleavage is 0.16.

Which self-cleavage does the source give for U13A U46C U62C here?
The self-cleavage was 0.03.

For U13C U14C A65G, which self-cleavage is on record?
Its self-cleavage is 0.14.

Which self-cleavage does the source give for U13C U52C G75A A107U A129G here?
Its self-cleavage is 1.4.

With U13C U52C A138U as the variant, how does the self-cleavage read?
Its self-cleavage is 2.3.

For U13C U62A U87C, which self-cleavage is on record?
The self-cleavage was 0.17.

For U13C A50G U100C, which self-cleavage is on record?
Its self-cleavage is 0.38.

Which self-cleavage does the source give for U13C A24G A64U U115C A117G U132C here?
The self-cleavage was 0.

Which self-cleavage does the source give for U13C A42G A78G here?
The self-cleavage was 1.84.

For U13A A141G U143C, which self-cleavage is on record?
The self-cleavage was 1.84.

Which self-cleavage does the source give for U13A U52A U85C here?
Its self-cleavage is 0.18.

Which self-cleavage does the source give for U13C G32A U104C G114A A136G here?
The self-cleavage was 1.2.

Which self-cleavage does the source give for U13A A77G U85A U100C U102C here?
Its self-cleavage is 0.21.

With U13C A57U A141G as the variant, how does the self-cleavage read?
Its self-cleavage is 0.1.

For U13C U26C C51U, which self-cleavage is on record?
Its self-cleavage is 2.09.

Which self-cleavage does the source give for U13C A42G G127A A141G here?
The self-cleavage was 1.84.

With U13C U20A G35U A67G as the variant, how does the self-cleavage read?
The self-cleavage was 0.23.

Which self-cleavage does the source give for U13C A43U U73C here?
The self-cleavage was 1.26.

For U13C U52G U108C, which self-cleavage is on record?
The self-cleavage was 0.97.

For U13C U14C U46C, which self-cleavage is on record?
The self-cleavage was 1.3.

With U13C C37A U85C U115C as the variant, how does the self-cleavage read?
Its self-cleavage is 0.33.

For U13C C110U U112C, which self-cleavage is on record?
The self-cleavage was 1.26.

Which self-cleavage does the source give for U13A A77U U87G here?
The self-cleavage was 0.08.

With U13A G75U U96A as the variant, how does the self-cleavage read?
Its self-cleavage is 0.03.

With U13C A77G U108C as the variant, how does the self-cleavage read?
Its self-cleavage is 0.71.

With U13C A22G C37A U87A as the variant, how does the self-cleavage read?
Its self-cleavage is 0.17.

With U13C G105U U143C as the variant, how does the self-cleavage read?
Its self-cleavage is 1.48.

For U13C G60U A67G, which self-cleavage is on record?
Its self-cleavage is 0.02.

For U13A U23G C113A, which self-cleavage is on record?
Its self-cleavage is 0.55.

For U13C U14C G105A G126U, which self-cleavage is on record?
Its self-cleavage is 1.07.

With U13C A50U U73C U108C C113U U132C as the variant, how does the self-cleavage read?
Its self-cleavage is 2.51.

With U13C U62C A117G A142G G144A as the variant, how does the self-cleavage read?
Its self-cleavage is 0.08.

Which self-cleavage does the source give for U13C A94G U96C here?
The self-cleavage was 0.

Which self-cleavage does the source give for U13C U45C A57U C63A here?
Its self-cleavage is 0.11.

Which self-cleavage does the source give for U13A U108C A136G here?
Its self-cleavage is 2.82.

For U13C A67G A78G G105A U115C A117G, which self-cleavage is on record?
Its self-cleavage is 0.54.

With U13C A42G U46A G58A U134C as the variant, how does the self-cleavage read?
Its self-cleavage is 0.07.

For U13C U62A G106U A141G, which self-cleavage is on record?
Its self-cleavage is 0.06.

Which self-cleavage does the source give for U13C G33C U52A A94G here?
The self-cleavage was 0.75.

With U13A U26A A77U as the variant, how does the self-cleavage read?
The self-cleavage was 1.25.

For U13C U29C A30G U85C, which self-cleavage is on record?
Its self-cleavage is 0.

With U13C A50G U132C as the variant, how does the self-cleavage read?
The self-cleavage was 0.45.

With U13C U39C U134C as the variant, how does the self-cleavage read?
The self-cleavage was 1.03.

With U13C A77G U130C as the variant, how does the self-cleavage read?
Its self-cleavage is 1.84.

With U13A A77G A138G as the variant, how does the self-cleavage read?
Its self-cleavage is 2.45.

With U13C U46C A67C A77U U109A U130C A138G as the variant, how does the self-cleavage read?
The self-cleavage was 0.2.

For U13C U46C U130C, which self-cleavage is on record?
The self-cleavage was 1.5.

With U13A U96C A121G U132C as the variant, how does the self-cleavage read?
Its self-cleavage is 0.28.

Which self-cleavage does the source give for U13C A57U A59G here?
The self-cleavage was 0.18.

Which self-cleavage does the source give for U13A U14C A67U U85C U132C U134A here?
The self-cleavage was 0.

With U13C U20A A22U A107G as the variant, how does the self-cleavage read?
The self-cleavage was 0.66.

With U13C A79G A94G as the variant, how does the self-cleavage read?
The self-cleavage was 0.

For U13C U23C U46C U87A, which self-cleavage is on record?
The self-cleavage was 0.3.

Which self-cleavage does the source give for U13C U20C G49A A77G U115A here?
The self-cleavage was 2.24.

With U13C G25U U46A U104A U143A as the variant, how does the self-cleavage read?
The self-cleavage was 0.65.

For U13C U39A A78G, which self-cleavage is on record?
The self-cleavage was 2.1.

With U13A C63U U85A U132C A138U as the variant, how does the self-cleavage read?
The self-cleavage was 0.03.
